Measurements: the RNAGym collection of RNA variant scans (doi:10.7554/elife.90254)
Read counts are not given, so values of variants with three or more changes are uncertain.

B1: LINE1-full (parent)
chain: UACGUAGGUGGUUUUCCCCUGAUAGUGCUAAGGGGGCCUGGAAGUUUGGACUGGGCAGAGCUCAACACAGCGUGGCAAAGUGGCUGUGGCUAGACUGCCUCUCUGGAUUCCUCGUCACUCAGCAGGGCAUCUCUGAGAGAAAUGCC

Variants of: B1
Experiment: self-cleavage, relative activity (ratio to wild type); higher = more cleavage; in vitro, sequencing; the parent is a self-cleaving ribozyme

Variant | self-cleavage
UACGUAGGUGGUUUUCCCCUGAUAGUGCUAAGGGGGCCUGGAAGUUUGGACUGGGCAGAGCUCAACACAGCGUGGCAAAGUGGCUGUGGCUAGACUGCCUCUCUGGAUUCCUCGCCACUCAGCAGGGCAUCCCUGAGAGAAGUGCC [U115C U132C A142G] | 0.63
UACGUAGGUGGUUUUCCCCUGAUAGUGCUAAGGGGGCCUGGAAGUUUGGACUGGGCAGAGCUCAACACAGCGUGGCAAAGUGGCUGUGGCUAGACUGCCUCUCUGGAUUCCUCGGCACUCAGCAGGGCAUCUCUGAGGGAAACGCC [U115G A138G U143C] | 2.33
UACGUAGGUGGUUUUCCCCUGAUAGUGCUAAGGGGGCCUGGAAGUUUGGACUGGGCAGAGCUCAACACAGCGUGGCAAAGUGGCUGUGGCUAGACUGCCUCUCUGGAUUCCUCGUAGCUCGGCAGGGCAUCUCUGAGAGAAAUGCC [C116A A117G A121G] | 1.04
UACGUAGGUGGUUUUCCCCUGAUAGUGCUAAGGGGGCCUGGAAGUUUGGACUGGGCAGAGCUCAACACAGCGUGGCAAAGUGGCUGUGGCUAGACUGCCUCUCUGGAUUCCUCGUAACUCAGCAGGGCAUCUCUGGGGGAAAUGCC [C116A A136G A138G] | 2.01
UACGUAGGUGGUUUUCCCCUGAUAGUGCUAAGGGGGCCUGGAAGUUUGGACUGGGCAGAGCUCAACACAGCGUGGCAAAGUGGCUGUGGCUAGACUGCCUCUCUGGAUUCCUCGUAACUCAGCAGGGCAUCCCUGAGAGAAAAGCC [C116A U132C U143A] | 0.9
UACGUAGGUGGUUUUCCCCUGAUAGUGCUAAGGGGGCCUGGAAGUUUGGACUGGGCAGAGCUCAACACAGCGUGGCAAAGUGGCUGUGGCUAGACUGCCUCUCUGGAUUCCUCGUUACUCAGCAGGGCACCUCUGAGAGAGAUGCC [C116U U130C A141G] | 1.09
UACGUAGGUGGUUUUCCCCUGAUAGUGCUAAGGGGGCCUGGAAGUUUGGACUGGGCAGAGCUCAACACAGCGUGGCAAAGUGGCUGUGGCUAGACUGCCUCUCUGGAUUCCUCGUCGCUCAGCAGGGCAUCUCUGAGGGACGUGCC [A117G A138G A141C A142G] | 0.92
UACGUAGGUGGUUUUCCCCUGAUAGUGCUAAGGGGGCCUGGAAGUUUGGACUGGGCAGAGCUCAACACAGCGUGGCAAAGUGGCUGUGGCUAGACUGCCUCUCUGGAUUCCUCGUCGCUCAGCAGGGCAUCUCUGAGGGAAAUACC [A117G A138G G144A] | 1.68
UACGUAGGUGGUUUUCCCCUGAUAGUGCUAAGGGGGCCUGGAAGUUUGGACUGGGCAGAGCUCAACACAGCGUGGCAAAGUGGCUGUGGCUAGACUGCCUCUCUGGAUUCCUCGUCGCUCAACAGGGCAUCUCUGAGAGGAAUGCC [A117G G122A A140G] | 1.82
UACGUAGGUGGUUUUCCCCUGAUAGUGCUAAGGGGGCCUGGAAGUUUGGACUGGGCAGAGCUCAACACAGCGUGGCAAAGUGGCUGUGGCUAGACUGCCUCUCUGGAUUCCUCGUCGCUCAGCAGAGCAUCUCUGAGAGUAAUGCC [A117G G126A A140U] | 1.62
UACGUAGGUGGUUUUCCCCUGAUAGUGCUAAGGGGGCCUGGAAGUUUGGACUGGGCAGAGCUCAACACAGCGUGGCAAAGUGGCUGUGGCUAGACUGCCUCUCUGGAUUCCUCGUCGCCCAGCAGGGCGUCUCUGAGAGAAAUGCC [A117G U119C A129G] | 0
UACGUAGGUGGUUUUCCCCUGAUAGUGCUAAGGGGGCCUGGAAGUUUGGACUGGGCAGAGCUCAACACAGCGUGGCAAAGUGGCUGUGGCUAGACUGCCUCUCUGGAUUCCUCGUCGCUCAGCAGGGCAACUCUGGGAGAAAUGCC [A117G U130A A136G] | 1.53
UACGUAGGUGGUUUUCCCCUGAUAGUGCUAAGGGGGCCUGGAAGUUUGGACUGGGCAGAGCUCAACACAGCGUGGCAAAGUGGCUGUGGCUAGACUGCCUCUCUGGAUUCCUCGUCUCUCGGCAGGGCAUCUCUGAGAGAAACGCC [A117U A121G U143C] | 1.31
UACGUAGGUGGUUUUCCCCUGAUAGUGCUAAGGGGGCCUGGAAGUUUGGACUGGGCAGAGCUCAACACAGCGUGGCAAAGUGGCUGUGGCUAGACUGCCUCUCUGGAUUCCUCGUCUCUCAGCAGGGCCUCUCUGAGAGAAGUGCC [A117U A129C A142G] | 1.8
UACGUAGGUGGUUUUCCCCUGAUAGUGCUAAGGGGGCCUGGAAGUUUGGACUGGGCAGAGCUCAACACAGCGUGGCAAAGUGGCUGUGGCUAGACUGCCUCUCUGGAUUCCUCGUCUCUCAGCAGGGCAUCUCUGGGAGGAAUGCC [A117U A136G A140G] | 1.41
UACGUAGGUGGUUUUCCCCUGAUAGUGCUAAGGGGGCCUGGAAGUUUGGACUGGGCAGAGCUCAACACAGCGUGGCAAAGUGGCUGUGGCUAGACUGCCUCUCUGGAUUCCUCGUCUCUUAGCAGGGCAUCUCUGAGAGAAGUGCC [A117U C120U A142G] | 1.82
UACGUAGGUGGUUUUCCCCUGAUAGUGCUAAGGGGGCCUGGAAGUUUGGACUGGGCAGAGCUCAACACAGCGUGGCAAAGUGGCUGUGGCUAGACUGCCUCUCUGGAUUCCUCGUCUCACAGCAGGGCAUCUCUAAGAGAAAUGCC [A117U U119A G135A] | 1.41
UACGUAGGUGGUUUUCCCCUGAUAGUGCUAAGGGGGCCUGGAAGUUUGGACUGGGCAGAGCUCAACACAGCGUGGCAAAGUGGCUGUGGCUAGACUGCCUCUCUGGAUUCCUCGUCUCCCAGCAGGGCAUCUCUGAGAGAAGUGCC [A117U U119C A142G] | 0.64
UACGUAGGUGGUUUUCCCCUGAUAGUGCUAAGGGGGCCUGGAAGUUUGGACUGGGCAGAGCUCAACACAGCGUGGCAAAGUGGCUGUGGCUAGACUGCCUCUCUGGAUUCCUCGUCUCCCAGUAGGGCAUCUCUGAGAGAAAUGCC [A117U U119C C123U] | 1.59
UACGUAGGUGGUUUUCCCCUGAUAGUGCUAAGGGGGCCUGGAAGUUUGGACUGGGCAGAGCUCAACACAGCGUGGCAAAGUGGCUGUGGCUAGACUGCCUCUCUGGAUUCCUCGUCAUUCAGCGGGGCAUCCCUGAGAGAAAUGCC [C118U A124G U132C] | 0.88
